Test results: PubChem BioAssay AID588855 (National Center for Advancing Translational Sciences (NCATS), 2011)
About 5,000 (1.2%) of roughly 410,000 compounds were called active. Inconclusive results, whose numbers are uncertain, are shown with a selection of clear calls. Calls come from the whole dose curve; as a rule, active = well fitted inhibition curve with a large enough effect; inconclusive = small, poorly fitted or top-dose-only effect; inactive = no such curve, though single readings can be large or run the other way. Where the call is inconclusive, the potency comes from a doubtful curve fit.
% is set by controls: 0 for no effect and ±100 for the full control effect; potency is the fitted concentration of half-maximal effect; tags give direction and shape of the fitted curve.

Assay: qHTS for Inhibitors of TGF-b; note: nearly all actives have a fitted effect of over 65% in size
Settings: HepG2 CAGA-GFP TGF-b/SMAD3 reporter, GFP fluorescence, 18 h, TGF-beta stimulated, 500 pg/mL final; series mostly up to 46.1 µM; activity, negative = inhibition: at the top concentration
Summary of the method: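 Smad-responsive CAGA-GFP expression was quantified in HEPG2 cells exposed to compounds and 500 pg/mL final TGF-beta for 18 h at 37 degrees C; unstimulated wells defined full inhibition.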
With `CNC(=O)COC(=O)c1ccccc1C(=O)c1ccc(Cl)c([N+](=O)[O-])c1` the “activity, negative = inhibition” value was inactive: -23.5%. For `CSc1cccc(-n2nnc(-c3nsc(NC(=O)c4cccs4)n3)c2C)c1`, the Potency was inconclusive: 25.1 µM [inhibitor, single point]. For `Cc1cccc(NC(=S)NNC(=O)COc2ccc(Cl)cc2Cl)c1`, the “activity, negative = inhibition” value was inactive: -30.3%. In the case of `CCOC(=O)C1=C(CN2CCC(C)CC2)NC(=O)NC1c1ccc(OC(C)C)cc1` (stereo not given), the Potency was inconclusive: 14.1 µM [inhibitor, single point]. In the case of `COc1ccc(C2=NOC(Cn3nc(C(=O)NCc4ccc(C)cc4)cc3-c3ccccc3)C2)cc1` (stereo not given), the Potency was inconclusive: 0.224 µM [inhibitor, full curve, poor fit]. In the case of `CC(C)(C)OC(=O)NCCCCCNC(=O)c1nc[nH]c1C(=O)N1CCN(C(=O)OC(C)(C)C)CC1`, the “activity, negative = inhibition” value was inactive: -2.48%. For `Cc1ccc(/C=C/C(=O)c2ccccc(=O)c2O)cc1C`, the Potency was active: 10 µM. With `O=C(O)/C=C/C(=O)NCc1cn(-c2ccccc2)nc1-c1cccc(Br)c1` the “activity, negative = inhibition” value was inactive: 22.8%. In the case of `Cc1cccc(NC(=O)CSc2nc3c([nH]c4ccccc43)c(=O)n2-c2cc(C)cc(C)c2)c1`, the Potency was inconclusive: 35.5 µM [inhibitor, single point]. For `Cc1cccc(NC(=O)c2cccc(S(=O)(=O)N3CCc4ccccc4C3)c2)n1`, the Potency was inconclusive: 0.631 µM [inhibitor, full curve, poor fit]. In the case of `CCCCCCn1c(CN2CCN(C(=O)OCC)CC2)nc2c1c(=O)n(C)c(=O)n2C`, the “activity, negative = inhibition” value was inactive: 12.8%. With `CC(=O)Nc1cccc(NC(=O)CSc2nnc3ccc(-c4ccccn4)nn23)c1` the Potency was inconclusive: 15.8 µM [inhibitor, partial curve, poor fit]. For `COc1cc(NC(=S)NCCC(c2ccccc2)c2ccccc2)c(OC)cc1Cl`, the Potency was inconclusive: 35.5 µM [inhibitor, single point]. For `CCNc1nc(SCCOc2ccc(Cl)cc2Cl)nc(N(C)C)n1`, the Potency was inconclusive: 14.1 µM [inhibitor, partial curve]. For `ON=C1c2ccccc2-c2ccccc21`, the Potency was inconclusive: 35.5 µM [inhibitor, single point]. In the case of `Nc1nc(-c2ccc(F)cc2)cc(C(F)(F)F)n1`, the “activity, negative = inhibition” value was inactive: -8.72%. For `Oc1ccc(N=Nc2n[nH]c(-c3ccc(Cl)cc3)n2)cc1`, the Potency was inconclusive: 35.5 µM [inhibitor, single point]. For `S=C(NCc1ccc(Cl)cc1)NC1CCN(Cc2ccccc2)CC1`, the Potency was inconclusive: 22.4 µM [inhibitor, single point]. For `CCOC(=O)C1(Cc2ccccc2C(F)(F)F)CCN(C2CCSC2)CC1` (stereo not given), the “activity, negative = inhibition” value was inactive: -19.6%. For `NS(=O)(=O)c1ccc(NC(=O)/C=C/c2cn(-c3ccccc3)nc2-c2cccc(Cl)c2)cc1`, the Potency was inconclusive: 20 µM [inhibitor, partial curve, poor fit]. For `O=C(OCc1ccc2c(c1)OCO2)c1ccc(S(=O)(=O)N2CCCC2)cc1`, the Potency was inconclusive: 11.2 µM [inhibitor, partial curve, poor fit]. In the case of `Fc1cc(F)cc(-c2c(-c3ccccc3)ncc3ccc(F)cc23)c1`, the Potency was inconclusive: 0.891 µM [inhibitor, partial curve, poor fit]. With `Fc1ccc(CSc2nc3ncc(Br)cc3[nH]2)cc1` the “activity, negative = inhibition” value was inactive: -7.42%. For `COc1cccc(-c2csc(N3CCN(C(=S)Nc4ccccc4Cl)CC3)n2)c1`, the Potency was inconclusive: 35.5 µM [inhibitor, single point]. With `COc1ccc(CNC(=O)Oc2ccccc2)cc1Cl` the “activity, negative = inhibition” value was inactive: 15.9%. In the case of `CC(C)CNC(=O)COC(=O)c1ccc(Cl)c(S(=O)(=O)N2CCc3ccccc32)c1`, the Potency was inconclusive: 3.16 µM [inhibitor, single point]. With `O=C(NCCc1c[nH]c2ccccc12)c1cc(S(=O)(=O)N2CCCCC2)ccc1N1CCOCC1` the “activity, negative = inhibition” value was inactive: 9.51%. With `Cc1cc(C(=O)NCCc2ccc(Cl)cc2)c2ccccc2n1` the “activity, negative = inhibition” value was inactive: -5.17%. In the case of `OC(CN1CCN(c2cccc(C(F)(F)F)c2)CC1)c1c[nH]c2ccccc12` (stereo not given), the Potency was inconclusive: 35.5 µM [inhibitor, partial curve, poor fit]. With `Cc1c(NC(=O)Nc2ccc(Cl)cc2)c(=O)n(-c2ccccc2)n1C` the “activity, negative = inhibition” value was inactive: 0.771%. In the case of `Cc1ccc(-n2ncc3c2CC(C)(C)CC3NC(=O)C2CCOCC2)cc1` (stereo not given), the “activity, negative = inhibition” value was inactive: -2.89%. With `CCOC(=O)C1CCN(CC(=O)Nc2c(C(=O)OC)[nH]c3ccc(Cl)cc23)CC1` the “activity, negative = inhibition” value was inactive: 3.42%. In the case of `CCNC(=S)NNC(=O)CCn1cc(C)cn1`, the “activity, negative = inhibition” value was inactive: -4.16%. With `CCOc1ccc(CCNC(=O)CSCc2nc(-c3cccc(C)c3)oc2C)cc1OCC` the Potency was inconclusive: 20 µM [inhibitor, single point]. In the case of `CN(C(=O)c1ccc(NC(=O)Cc2ccc(NC(=O)C3CCCN(C(=O)C4CCCCC4)C3)cc2)cc1)C1CCCC1` (stereo not given), the Potency was inconclusive: 5.62 µM [inhibitor, full curve, poor fit]. With `CCCCCn1c(CN2CCN(c3cccc(Cl)c3)CC2)nc2c1c(=O)n(C)c(=O)n2C` the Potency was inconclusive: 17.8 µM [inhibitor, single point]. For `CCCOc1ccc(C(=O)CCNC(Cc2c[nH]c3ccccc23)C(=O)O)cc1` (stereo not given), the “activity, negative = inhibition” value was inactive: 3.43%. In the case of `CC(C)(C)c1ccc(S(=O)(=O)Nc2ccc(Cc3ccncc3)cc2)cc1`, the Potency was inconclusive: 17.8 µM [inhibitor, single point]. With `COc1ccc(NC(=S)N(CCCN2CCOCC2)C(C)c2cc3cccc(OC)c3o2)cc1` (stereo not given) the Potency was inconclusive: 0.631 µM [inhibitor, full curve, poor fit]. For `Fc1ccc(Nc2nc(NCc3ccccc3)nc3ccsc23)cc1`, the Potency was inconclusive: 35.5 µM [inhibitor, single point]. With `O=C(Nc1ccc(F)c(Cl)c1)C1CCCN(S(=O)(=O)c2cccc3nsnc23)C1` (stereo not given) the Potency was inconclusive: 11.2 µM [inhibitor, partial curve, poor fit]. For `C[C@H](CO)N1C[C@H](C)[C@H](CN(C)S(=O)(=O)c2cccs2)Oc2ccc(NC(=O)Nc3ccc4c(c3)OCO4)cc2CC1=O`, the Potency was inconclusive: 3.55 µM [inhibitor, full curve]. For `CCOC(=O)c1cnc(-n2nc(C)cc2C)nc1NCc1ccc2c(c1)OCO2`, the “activity, negative = inhibition” value was inactive: -19%. In the case of `Cc1ccnc(NC(c2ccccn2)c2c(C)[nH]c3ccccc23)c1` (stereo not given), the Potency was inconclusive: 12.6 µM [inhibitor, partial curve, poor fit]. In the case of `O=C(Nc1ccc(N2CCN(C(=O)c3ccco3)CC2)c(Cl)c1)c1cccs1`, the “activity, negative = inhibition” value was inactive: 4.02%. With `O=C(COC(=O)c1cc(-c2ccco2)nc2ccccc12)NCc1ccc2c(c1)OCO2` the Potency was inconclusive: 0.316 µM [inhibitor, partial curve, poor fit]. With `COCCN(C(=O)COC(=O)CCCc1c[nH]c2ccccc12)c1c(N)n(Cc2ccccc2)c(=O)[nH]c1=O` the “activity, negative = inhibition” value was inactive: -1.45%. With `CCOC(=O)c1c(C)[nH]c(N=Nc2cccc(C)c2)c1C` the Potency was inconclusive: 17.8 µM [inhibitor, single point]. For `CCN1C(=O)[C@H]2[C@H]3CN=C(SC)N3[C@@](CC)(C(=O)OC)[C@H]2C1=O`, the Potency was inconclusive: 0.1 µM [inhibitor, full curve, poor fit]. With `O=c1oc(-c2ccc(O)c(O)c2)cc2cccc(O)c12` the “activity, negative = inhibition” value was inactive: -20.1%. For `CCCCCCCCCC(=O)NNC(=O)c1c(O)c2ccccc2n(CC)c1=O`, the Potency was inconclusive: 0.631 µM [inhibitor, partial curve, poor fit]. For `CS(=O)(=O)c1cc([N+](=O)[O-])c(Sc2nc3ccccc3[nH]2)c([N+](=O)[O-])c1`, the Potency was inconclusive: 35.5 µM [inhibitor, single point]. With `CC1=NN(C(N)=S)C(=O)C1N=Nc1ccccc1Cl` (stereo not given) the Potency was inconclusive: 2 µM [inhibitor, partial curve]. For `O=C(NC1CC(=O)N(c2ccc(Cl)cc2)C1)C(=O)c1c[nH]c2ccccc12` (stereo not given), the Potency was inconclusive: 14.1 µM [inhibitor, single point]. In the case of `O=C(NCc1ccco1)c1cc2nc(C3CC3)cc(C(F)(F)F)n2n1`, the Potency was inconclusive: 0.447 µM [inhibitor, full curve, poor fit]. For `CC1CCCC(C)N1CCCNC(=O)c1ccc2nc(N3CCCCC3)sc2c1` (stereo not given), the “activity, negative = inhibition” value was inactive: -1.95%. With `c1ccc(CCSc2ncnc3nc[nH]c23)cc1` the Potency was inconclusive: 4.47 µM [inhibitor, full curve]. With `Cc1nnc(N2CCN(C(=O)Nc3cc(F)ccc3F)CC2)c2nn(-c3ccc(Cl)cc3)c(C)c12` the Potency was inconclusive: 1.26 µM [inhibitor, full curve, poor fit]. In the case of `Cc1cc(C)cc(NC(=S)Nc2cccc3ccccc23)c1`, the Potency was inconclusive: 35.5 µM [inhibitor, single point]. With `Cc1cc(C)n(-c2nc(NCCN(C)C)c3c4c(sc3n2)CCCC4)n1` the Potency was inconclusive: 35.5 µM [inhibitor, single point]. For `CCCCn1c(CN2CCN(C)CC2)nc2ccccc21`, the Potency was inconclusive: 35.5 µM [inhibitor, single point]. For `Cc1ccc(Nc2ccc(N3CCN(C(=O)c4ccc([N+](=O)[O-])cc4Cl)CC3)nn2)cc1`, the Potency was inconclusive: 4.47 µM [inhibitor, full curve]. For `CCc1ccccc1NC(=O)CCc1c(C)nc2cc(-c3ccccc3)nn2c1C`, the Potency was inconclusive: 7.08 µM [inhibitor, full curve, poor fit]. In the case of `Cc1ccc(S(=O)(=O)N2CCN(CC(=O)N/N=C\c3ccc(Cl)c([N+](=O)[O-])c3)CC2)cc1`, the Potency was inconclusive: 8.91 µM [inhibitor, partial curve]. In the case of `Cc1cccc(NC(=O)COC(=O)C(NC(=O)c2cccc(S(=O)(=O)N3CCOCC3)c2)C(C)C)c1` (stereo not given), the Potency was inconclusive: 35.5 µM [inhibitor, single point].
